Experimental data taken from PubChem BioAssay AID1347073 (National Center for Advancing Translational Sciences (NCATS), 2019).
Out of some 45,000 compounds screened, about 200 (0.44%) were called active. Not shown: some 7% with an inconclusive outcome. Calls follow the shape of the dose curve; as a rule, active = well fitted activation curve with a large enough effect; inconclusive = small, poorly fitted or top-dose-only effect; inactive = no such curve, though single readings can be large or run the other way. Some of the results follow.

Experiment: qHTS of TDP-43 Inhibitors: NCGC Sytravon Library Screen; also: 0% is about no effect; nearly all actives have a fitted effect of over 55% in size
Conditions: yeast TDP-43 toxicity rescue, BacTiter-Glo growth, 24 h; series mostly up to 46.1 µM; growth rescue (activation): at the top concentration
Outline: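 TDP-43-expressing yeast, pregrown in raffinose, seeded at OD600 0.02 in galactose medium with compound for 24 hr at 30 deg C. Growth read by BacTiter-Glo luminescence, so rescue of toxicity appears as activation.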

Structure (SMILES) | growth rescue (activation)
COc1ccc(Cc2nnc(NC(=O)c3ccc(OC)c(OC)c3)s2)cc1 | inactive: -4.83%
CCc1cccc(NC(=O)Cn2c(-c3ccccc3)cc(C(C)=O)c2C)c1 | inactive: -3.28%
CCCS(=O)(=O)NC(=O)C1(C)CCCN(C(=O)c2cc(F)cc(F)c2)C1 (configuration not stated) | inactive: 3.34%
Cc1ccccc1-c1nc(NC(C)C)nc2cc(-c3ccccc3)sc12 | inactive: 19.7%
COc1ccccc1CNC(=O)CN1C(=O)NC(c2ccccc2)(c2ccccc2)C1=O | inactive: 3.47%
COc1cc(/C=C/c2noc(-c3ccccc3O)n2)cc(OC)c1OC | inactive: -2.71%
CCn1c(=O)c2c(nc(SCC(=O)N3CCC(C)CC3)n2C)n(C)c1=O | inactive: -0.704%
CN(CC(=O)NCc1ccccc1Cl)S(=O)(=O)c1cccs1 | inactive: 14.3%
Cc1ccc(SCc2cc(=O)[nH]c(SCC(=O)Nc3cc(Cl)ccc3Cl)n2)cc1 | inactive: -0.31%
CCOC(=O)c1cc(NC(=O)N2CCCc3ccccc32)c(C)nc1C | inactive: -8.18%
Cc1ccc(/C=C2/SC(=S)N(CCC(=O)N3CCOCC3)C2=O)cc1 | inactive: -5.3%
Cc1ccc(SCC(=O)NC(=O)c2ccc(S(=O)(=O)N(C)C)cc2)cc1C | inactive: 7.11%
COc1cccc(C(=O)OCC(=O)Nc2cc(C)on2)c1OC | inactive: 13.2%
O=C(CSc1nnnn1C1CCCC1)Nc1ccccc1N1CCOCC1 | inactive: 2.34%
O=C(OCc1ccc(F)cc1)c1cc(=O)c2ccccc2o1 | inactive: 26.9%
OC[C@@H]1CN(Cc2ccc(Cl)cc2)C[C@H](n2cnc3c(N4CCCC4)ncnc32)O1 | inactive: 6.86%
O=CN1CCN(C(=O)c2ccccc2Cl)CC1 | inactive: 24%
Cc1cccc(-n2c(CCN3C(=O)c4ccccc4C3=O)nc3ccccc3c2=O)n1 | inactive: 3.49%
O=C(Nc1nnc(N2CCCCCC2)s1)Nc1ccccc1C(F)(F)F | inactive: 26%
CC(C)c1cccc(OCC(=O)Nc2ccc(S(=O)(=O)Nc3ccccn3)cc2)c1 | inactive: 7.37%
O=C(C1CCN(C2CCN(Cc3cccc4c3OCO4)CC2)CC1)N1CCOCC1 | inactive: 7.7%
O=C(c1ccccc1)N1CCN(CC(O)Cn2ccc3ccccc32)CC1 (configuration not stated) | inactive: -23.7%
COc1ccccc1/C=C(/C(=O)OCC(=O)NCc1ccccc1)c1ccccc1 | inactive: 3.3%
COc1ccc(/C=C2\SC(=O)N(CCC(=O)Nc3ccccc3)C2=O)cc1OC | inactive: 5.72%
O=C(CCC(=O)Nc1cc(C(F)(F)F)ccc1Cl)N/N=C\c1cc([N+](=O)[O-])ccc1O | inactive: -5.55%
CC(=O)c1sc(NC(C)c2ccccc2)nc1C (configuration not stated) | inactive: 25.6%

Structure (SMILES) | growth rescue (activation)
COc1ccc(C(=O)COC(=O)c2ccccn2)c(OC)c1 | inactive: -15.7%
COC(=O)c1ccc(NC(=O)CCN2C(=O)CSC2=O)cc1 | inactive: 6.7%
CCN(CC(=O)NCc1ccc(Cl)cc1)C(=O)c1cc(S(=O)(=O)N2CCOCC2)ccc1C | inactive: 29.8%
O=C(OCC(=O)N1CCCc2ccccc21)c1ccccc1OC(F)F | inactive: 18.9%
N#CC1=C(N)OC2=C(C(=O)CC(c3ccccc3)C2)C1c1ccc2c(c1)OCO2 (configuration not stated) | inactive: 14.4%
CCCc1c(O)nc(SC2CC(=O)N(c3ccc(OC)cc3)C2=O)[nH]c1=O (configuration not stated) | inactive: -11.7%
Cc1nc2ccccc2c(=O)n1/N=C/c1cc(Br)ccc1O | inactive: -4.94%
COc1ccccc1C(CNc1ncccc1[N+](=O)[O-])N(C)C (configuration not stated) | inactive: 4.98%
CC(C(=O)Nc1cccc(S(=O)(=O)N2CCOCC2)c1)N1CCN(c2ccc(F)cc2)CC1 (configuration not stated) | inactive: 13.1%
CC(=O)Nc1ccc(-c2ccnc3c2CC(C)(C(=O)Nc2cccc(Oc4ccccc4)c2)O3)cc1 (configuration not stated) | inactive: 4.55%
Cc1ccc(/C=C2\NC(=S)NC2=O)cc1[N+](=O)[O-] | inactive: 13.1%
COc1ccc(/C=N/Nc2nnc(Cc3ccccc3)c(=O)[nH]2)cc1OC | inactive: 6.62%
OC(c1ccc(F)cc1)C(CN1CCOCC1)c1ccccc1 (configuration not stated) | inactive: 5.31%
CCCCNC(=O)C1(C)CCCCN1C(=O)c1ccc(F)c(C)c1 (configuration not stated) | inactive: -7.8%
CC1(C)Cc2c(cnn2-c2cccc(F)c2)C(NC(=O)Cn2cccn2)C1 (configuration not stated) | inactive: 0.462%
CC(C)C(NC(=O)c1ccccc1F)C(=O)NCc1ccc(F)cc1 (configuration not stated) | inactive: 18.5%
COc1ccc(S(N)(=O)=O)cc1C(=O)OCC(=O)N1c2ccccc2NC(=O)C1(C)C | inactive: -0.343%
Cc1ccccc1C(=O)NC1CCN(C(=O)NC2CCCCC2)CC1 | inactive: 6.82%
COc1ccccc1N1CC(C(=O)NC2CCCCCC2)CC1=O (configuration not stated) | inactive: 1.01%
Cc1occc1-c1nnc(SCC(=O)Nc2ccc(F)cc2)n1C | inactive: -10.6%
CNS(=O)(=O)c1cccc(C(=O)OCC(=O)Nc2ccc(-c3nc4ccc(C)cc4s3)cc2)c1 | inactive: 8.15%
O=S(=O)(NCCN1CCOCC1)c1ccc(F)c(Cl)c1 | inactive: -4.64%
Cc1c(N=Nc2c(-c3ccc([N+](=O)[O-])cc3)[nH]n(C(N)=S)c2=O)cccc1[N+](=O)[O-] | inactive: 6.82%
Cc1cc(Cl)ccc1OCCCC(=O)N/N=C/c1cccc([N+](=O)[O-])c1 | inactive: 15.1%
CCn1nnc(NC(=O)c2cc(Cl)c(OC)c(Cl)c2)n1 | inactive: 6.07%
CCCS(=O)(=O)NC(=O)C1(C)CCN(C(=O)COc2ccccc2)C1 (configuration not stated) | inactive: 5.7%
